The values that follow come from PMC4336329 (PLoS ONE, 2015).

The whole screen tested about 310,000 compounds, of which about 14,000 (4.5%) showed an effect of 50% or more. Effects have a minus sign here. The list shows a part of the results.
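Also: peak tail current of the secondary pulse compared with the same well before compound.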

In the assay the target is human ether-à-go-go-related gene (hERG) potassium channel (human, UniProt Q12809). In words: primary screen, population patch clamp on CHO cells stably expressing hERG.
Sequence of human ether-à-go-go-related gene (hERG) potassium channel (Q12809 whole entry, looked up): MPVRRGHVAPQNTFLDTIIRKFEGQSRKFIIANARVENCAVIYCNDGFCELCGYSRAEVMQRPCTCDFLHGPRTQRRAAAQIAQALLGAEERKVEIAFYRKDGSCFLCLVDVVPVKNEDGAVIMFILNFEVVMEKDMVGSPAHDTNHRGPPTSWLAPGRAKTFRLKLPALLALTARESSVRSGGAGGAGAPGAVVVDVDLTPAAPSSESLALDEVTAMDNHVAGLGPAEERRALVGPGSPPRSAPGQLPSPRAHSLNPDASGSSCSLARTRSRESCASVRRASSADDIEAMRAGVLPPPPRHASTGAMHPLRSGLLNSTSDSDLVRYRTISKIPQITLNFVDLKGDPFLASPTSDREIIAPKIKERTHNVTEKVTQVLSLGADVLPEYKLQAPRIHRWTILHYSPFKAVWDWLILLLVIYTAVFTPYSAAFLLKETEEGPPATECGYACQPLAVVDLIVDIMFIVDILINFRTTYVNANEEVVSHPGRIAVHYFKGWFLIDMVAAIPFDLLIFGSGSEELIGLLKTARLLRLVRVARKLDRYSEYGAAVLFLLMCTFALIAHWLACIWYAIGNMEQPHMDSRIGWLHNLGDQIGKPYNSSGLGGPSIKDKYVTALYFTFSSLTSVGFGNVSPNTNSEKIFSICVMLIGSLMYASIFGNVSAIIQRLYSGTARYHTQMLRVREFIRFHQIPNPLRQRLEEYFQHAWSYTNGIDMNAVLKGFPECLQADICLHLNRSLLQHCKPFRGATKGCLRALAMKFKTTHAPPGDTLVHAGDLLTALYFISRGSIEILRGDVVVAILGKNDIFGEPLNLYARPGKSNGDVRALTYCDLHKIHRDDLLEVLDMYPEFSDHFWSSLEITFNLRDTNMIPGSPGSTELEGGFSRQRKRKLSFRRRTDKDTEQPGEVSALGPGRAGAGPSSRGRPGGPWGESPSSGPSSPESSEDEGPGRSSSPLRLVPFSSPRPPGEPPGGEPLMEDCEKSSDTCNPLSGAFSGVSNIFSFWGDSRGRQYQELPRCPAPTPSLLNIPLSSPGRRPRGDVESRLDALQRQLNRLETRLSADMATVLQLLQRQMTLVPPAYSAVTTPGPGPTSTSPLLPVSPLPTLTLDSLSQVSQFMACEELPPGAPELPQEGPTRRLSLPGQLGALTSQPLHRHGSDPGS
As for `Cc1sc2nc(SCc3nc4ccccc4[nH]3)n(Cc3ccco3)c(=O)c2c1C`, the “hERG current change (%, negative = inhibition) at 10uM” value is listed as -9.15%. Regarding `CCn1c(SCc2ccc(C(=O)Nc3cc(C)cc(C)c3)cc2)nnc1-c1ccncc1`, the “hERG current change (%, negative = inhibition) at 10uM” value was -59.2%. With `N#Cc1c(NC(=O)CSc2ncnc3sccc23)oc(-c2ccco2)c1-c1ccco1`, the “hERG current change (%, negative = inhibition) at 10uM” value is on record as -0.309%.

As for `COc1ccc(OC)c(/C=N/NC(=S)NCCc2ccccc2)c1`, the “hERG current change (%, negative = inhibition) at 10uM” value turned out to be 8.63%. To `CCOC(=O)C1=C(N)OC2=C(C(=O)CCC2)C1c1ccc2c(c1)OCO2` (centres unmarked) belongs -1.12%; to `O=C(NC1CC1)c1ccc(CN(c2ccccc2)S(=O)(=O)c2ccccc2)cc1`, -4.61%.

Turning to `Cc1cccc(-c2nc(CN3CCCC(C(=O)NC4CCCCC4)C3)c(C)o2)c1` (centres unmarked), the “hERG current change (%, negative = inhibition) at 10uM” value is reported as -60.4%. To `O=C(Nc1nnc(C2CC2)s1)c1cccc(S(=O)(=O)N2CCc3ccccc32)c1` belongs 10.9%; to `Nc1nonc1-n1nnc(C(=O)N/N=C/c2cccc(Cl)c2)c1CSc1ccc(Cl)cc1`, 23.9%. Next, `C/C=C(\C)C(=O)N1CC2(CC(c3cccc(NC(=O)CCCCC)c3)=NO2)C[C@@H]1C(N)=O` (some centres unmarked): -6.29%.

As for `COc1ccc(CCN2C(=O)CC(NC34CC5CC(CC(C5)C3)C4)C2=O)cc1OC` (centres unmarked), the “hERG current change (%, negative = inhibition) at 10uM” value is given as -6.23%. Next, `Cc1ccc(NC(=O)c2cccnc2)c([N+](=O)[O-])c1`: -0.861%.

Turning to `C=CCSc1ncccc1C(=O)NCc1ccccc1`, the “hERG current change (%, negative = inhibition) at 10uM” value came out at 3.61%. Turning to `O=C(Cc1n[nH]c(=O)c2ccccc12)NCc1ccccn1`, the “hERG current change (%, negative = inhibition) at 10uM” value amounted to 1.91%.

As for `CC1CC(C)CN(C/C=C/c2ccccc2[N+](=O)[O-])C1` (centres unmarked), the “hERG current change (%, negative = inhibition) at 10uM” value is reported as -55.9%. Next, `CC(C)CN(CC(C)C)CC(O)CN(c1ccccc1)S(=O)(=O)c1ccccc1[N+](=O)[O-]` (centres unmarked): -51.5%. To `CCn1cnc2cc(NC(=O)c3ccco3)ccc21` belongs 14.1%; to `O=C(Cc1ccc(Br)cc1)NC1CCN(Cc2ccccc2)CC1`, -56%; to `COC(=O)C1=C(c2cccc(OCc3ccccc3)c2)C[C@@H]2CC[C@H]1N2C(=O)NCc1ccccc1`, 6.08%. Turning to `O=C(NCC1CCCC(CNC(=O)N2CCc3ccccc32)C1)N1CCc2ccccc21` (centres unmarked), the “hERG current change (%, negative = inhibition) at 10uM” value is -1.09%.

Turning to `COc1ccc(C2c3cc(OC)c(OC)cc3CCN2C(=O)c2cccc([N+](=O)[O-])c2)cc1OC` (centres unmarked), the “hERG current change (%, negative = inhibition) at 10uM” value is on record as -22.4%. Take `COc1cc(OC)cc(OC(=O)c2cccc(S(=O)(=O)N3CCN(C)CC3)c2)c1`: the “hERG current change (%, negative = inhibition) at 10uM” value is reported as -14.1%.

On to `O=C(c1ccncc1)N1CCN(c2ccc3ccccc3n2)CC1`, for which the “hERG current change (%, negative = inhibition) at 10uM” value was -30.9%. On to `COc1ccc(-c2nc(-c3ccc(C(=O)O)cc3)no2)cc1`, for which the “hERG current change (%, negative = inhibition) at 10uM” value is -1.08%. As to `Cc1c(C(=O)N2CCN(c3ccc(F)cc3)CC2)sc2nc3n(c(=O)c12)CCC3`, the “hERG current change (%, negative = inhibition) at 10uM” value was -28.3%. In the case of `CCCNC(=O)N1CCC(Cc2ccccc2)CC1`, the “hERG current change (%, negative = inhibition) at 10uM” value worked out at 16.6%. Next, `CCOC(=O)c1ccccc1OC(=O)CS(=O)c1ccccc1[N+](=O)[O-]` (centres unmarked): 1.26%; `COc1nc(OC)nc(N2CCC(NC(=O)C(Cc3ccc(C(C)C)cc3)NC(C)=O)CC2)n1` (centres unmarked): 5.87%; `Cc1nnc(SCc2cc([N+](=O)[O-])cc3c2OCOC3)n(N)c1=O`: 15.5%. For `O=C(O)CCn1c(SCc2cccc3ccccc23)nc2ccccc21`, the “hERG current change (%, negative = inhibition) at 10uM” value amounted to 3.01%. To `CC(C)(C)c1csc(Sc2ccc([N+](=O)[O-])cn2)n1` belongs 2.06%; to `COC(=O)c1ccc(C(=O)OC)c(NC(=S)N2CCN(C(=O)C3CCCO3)CC2)c1` (centres unmarked), 1.43%; to `COc1ccc2c([N+](=O)[O-])c(N3CCCC3)[nH]c2c1`, 6.27%. Next, `COc1ccc(OCc2nc3ccc(S(=O)(=O)Nc4ccccc4Cl)cc3[nH]2)cc1`: -22.7%. `CC(NC(=O)c1cc(S(=O)(=O)N(C)C)ccc1Cl)C1CC2CCC1C2` (centres unmarked): the “hERG current change (%, negative = inhibition) at 10uM” value is 2.2%. `Cn1nnnc1SCC1=C(C(=O)O)N2C(=O)C(NC(=O)Cn3nc(C(F)F)cc3C3CC3)C2SC1` (centres unmarked): the “hERG current change (%, negative = inhibition) at 10uM” value turned out to be 17.3%. On to `O=C(O)CCCn1ccc2cc(S(=O)(=O)N3CCCC3)ccc21`, for which the “hERG current change (%, negative = inhibition) at 10uM” value came out at 25.6%. Next, `COc1ccc(NC(=O)Cc2ccc(Cl)cc2)cc1S(=O)(=O)N1CCCCC1`: -17.3%; `Cc1cc(C)n(CC(O)COc2ccc3ccccc3c2)n1` (centres unmarked): 17.1%; `Cc1ccc(Oc2ccc(-c3nc(N)nc(N)n3)cc2)cc1C`: -4.61%.

Turning to `CC[C@@]12C(=O)N(c3ccc(OC)cc3)C(=O)N1[C@H](c1cccc(C)c1)[C@@H]1C(=O)N(Cc3ccccc3)C(=O)[C@@H]12`, the “hERG current change (%, negative = inhibition) at 10uM” value is -5.04%. To `Brc1ccc(-c2noc3c2-c2nc(C4CCCCC4)sc2CC3)cc1` belongs 15.7%.

`NC(=O)c1c(NC(=O)CCCC(=O)O)sc2c1CCCCCC2`: the “hERG current change (%, negative = inhibition) at 10uM” value is listed as 8.98%. Next, `Cc1cccc[n+]1CC(=O)c1ccc(Cl)cc1.[Cl-]`: 8.08%; `OCCCNc1nc(-c2ccccc2)c2cc(Cl)ccc2n1`: 3.04%; `Cc1ccc(SC(C)C(=O)Nc2ccncc2)cc1` (centres unmarked): -6.85%.

For the compound `COc1cc(OC)c(NC(=O)CCNC(=O)Cn2cnc3ccccc3c2=O)cc1Cl`, the “hERG current change (%, negative = inhibition) at 10uM” value was -0.133%. For the compound `Cc1cc(C)nc(S/C=C/C(=O)c2ccc(F)cc2)n1`, the “hERG current change (%, negative = inhibition) at 10uM” value worked out at 11.2%. Next, `CCn1c(-c2csc3c2CCC(C)C3)n[nH]c1=S` (centres unmarked): 1.2%.

On to `CC(NC(=O)CN1CCN(CC(=O)Nc2ccccc2Cl)CC1)c1ccc(Br)cc1` (centres unmarked), for which the “hERG current change (%, negative = inhibition) at 10uM” value is reported as -75.1%. As for `O=C(CNCCc1ccccc1)Nc1ccc(C(=O)N2CCCCC2)cc1.O=C(O)C(=O)O`, the “hERG current change (%, negative = inhibition) at 10uM” value was determined as 5.77%. To `O=C(CSc1ccc2nnc(-c3ccc(F)cc3)n2n1)N1CCOCC1` belongs -18.6%. To `O=C(NCCCN1CCOCC1)c1sc2cc(Cl)ccc2c1Cl` belongs -69.6%.
